Source: paper PMC4336329 (PLoS ONE, 2015)
Among all 310,000 compounds or so, about 14,000 (4.5%) showed an effect of 50% or more. Effects have a minus sign here. The list shows a part of the results.

biological target: human ether-à-go-go-related gene (hERG) potassium channel (human, UniProt Q12809); assay: primary screen, population patch clamp on CHO cells stably expressing hERG
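Further: peak tail current of the secondary pulse compared with the same well before compound.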

human ether-à-go-go-related gene (hERG) potassium channel, sequence (Q12809 whole entry, looked up): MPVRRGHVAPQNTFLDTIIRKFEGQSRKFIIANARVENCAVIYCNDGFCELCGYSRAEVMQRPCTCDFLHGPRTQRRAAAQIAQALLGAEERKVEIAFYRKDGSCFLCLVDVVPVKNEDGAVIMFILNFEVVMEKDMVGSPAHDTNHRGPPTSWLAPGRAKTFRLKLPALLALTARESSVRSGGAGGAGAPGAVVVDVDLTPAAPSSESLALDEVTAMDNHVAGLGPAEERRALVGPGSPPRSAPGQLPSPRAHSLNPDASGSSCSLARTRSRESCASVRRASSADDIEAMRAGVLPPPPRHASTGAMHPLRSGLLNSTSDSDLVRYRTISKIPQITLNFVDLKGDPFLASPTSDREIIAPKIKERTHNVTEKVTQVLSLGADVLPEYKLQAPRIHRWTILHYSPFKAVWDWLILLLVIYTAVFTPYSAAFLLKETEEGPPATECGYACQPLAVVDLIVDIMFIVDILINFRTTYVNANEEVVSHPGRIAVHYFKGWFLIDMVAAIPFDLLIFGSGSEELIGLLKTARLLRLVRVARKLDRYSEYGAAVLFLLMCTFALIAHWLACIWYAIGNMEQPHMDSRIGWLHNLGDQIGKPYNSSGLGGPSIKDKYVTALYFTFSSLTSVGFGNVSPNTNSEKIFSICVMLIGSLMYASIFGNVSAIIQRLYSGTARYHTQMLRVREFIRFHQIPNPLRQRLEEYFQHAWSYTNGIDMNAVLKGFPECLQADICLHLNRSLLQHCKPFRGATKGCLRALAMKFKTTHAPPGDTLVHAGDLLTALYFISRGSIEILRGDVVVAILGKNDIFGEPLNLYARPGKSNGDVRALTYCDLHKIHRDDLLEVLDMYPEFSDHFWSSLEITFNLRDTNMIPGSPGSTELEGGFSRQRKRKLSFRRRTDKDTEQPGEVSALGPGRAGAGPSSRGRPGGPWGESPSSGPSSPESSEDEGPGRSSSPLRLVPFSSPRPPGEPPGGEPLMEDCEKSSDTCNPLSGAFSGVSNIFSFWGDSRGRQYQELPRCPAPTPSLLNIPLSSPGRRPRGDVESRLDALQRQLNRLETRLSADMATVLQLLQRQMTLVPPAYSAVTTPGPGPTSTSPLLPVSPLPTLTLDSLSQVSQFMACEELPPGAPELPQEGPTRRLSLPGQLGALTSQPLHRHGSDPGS

First: CC(C)c1nnc(NC(=O)C2CCN(C(=O)Nc3ccc(Cl)cc3)CC2)s1
Second: CC(C)C(NC(=O)C1CCCCC1)C(=O)NC1=NCCS1 (centres unmarked)
The “hERG current change (%, negative = inhibition) at 10uM” value of the first is lower: 1.04% for the first, 17.8% for the second.

Compared with `NNC(=O)CCCNc1ncc(C(F)(F)F)cc1Cl`, `CC12CCC(=O)N1C(C(=O)NNC(=O)COc1cccc(C(F)(F)F)c1)CS2` (centres unmarked) is lower in “hERG current change (%, negative = inhibition) at 10uM” value: 5.03% for the first, 1.86% for the second.

Going from `O=C(CSc1nnnn1-c1ccccc1)Nc1nsc(-c2ccccc2)n1` to `COc1cccc(C(=O)CSc2nnc(CNc3nc(-c4ccccc4)cs3)n2C)c1`, the “hERG current change (%, negative = inhibition) at 10uM” value rises from -13.9% to -7.48%.

First: COc1ccc(C(=O)Oc2ccc3c(C)cc(=O)oc3c2C(C)=O)cc1
Second: COc1ccc(OC)c(C(=O)c2coc3ccc(O)cc23)c1
The “hERG current change (%, negative = inhibition) at 10uM” value of the first is lower: -8.57% for the first, -1.61% for the second.

Going from `O=S(=O)(NCc1ccc(F)cc1)c1ccccc1Br` to `O=C(N/N=C/c1ccc(Br)cc1)c1cc[n+](Cc2ccccc2)cc1.[Cl-]`, the “hERG current change (%, negative = inhibition) at 10uM” value falls from -2.63% to -10.7%.

First: CCOc1cc2[nH]c(=S)n(Cc3ccc(C(=O)NCC(OC)OC)cc3)c(=O)c2cc1OCC
Second: COc1ccc(C(=O)COC(=O)CCc2nc3ccccc3[nH]c2=O)cc1Br
The “hERG current change (%, negative = inhibition) at 10uM” value of the first is lower: -4.98% for the first, 24.4% for the second.

First: COc1ccccc1-c1nnc(-c2ccc(C)cc2)o1
Second: CC1(C)Cc2c(ccc3ccccc23)-c2nnc(-c3cccnc3)n21
The “hERG current change (%, negative = inhibition) at 10uM” value of the first is lower: -33.3% for the first, -6.37% for the second.

Going from `CCc1ccccc1NC(=O)CNCC(=O)Nc1ccccc1CC` to `O=C(O)COc1ccc(C(=O)c2ccccc2)cc1`, the “hERG current change (%, negative = inhibition) at 10uM” value falls from 12.2% to 4.55%.

Going from `CC(C)Oc1ccc(C(=O)NCc2cccs2)cc1` to `COc1ccc2oc(C(=O)NCC(c3ccco3)N(C)C)c(C)c2c1` (centres unmarked), the “hERG current change (%, negative = inhibition) at 10uM” value falls from -13% to -24.3%.

Going from `O=C1CN(C(=O)COC(=O)c2ccc(N3CCCCCC3)c([N+](=O)[O-])c2)c2ccccc2N1` to `O=C(NC(=S)NNC(=O)c1ccccc1O)c1ccc([N+](=O)[O-])cc1`, the “hERG current change (%, negative = inhibition) at 10uM” value rises from 5.72% to 12.8%.

Compared with `CCC1(C)NC(=O)N(CC(=O)Nc2sc3c(c2C(N)=O)CCC3)C1=O` (centres unmarked), `CCc1noc(C)c1C(=O)N1CCCC(CCC(=O)NCc2ccc(F)c(F)c2)C1` (centres unmarked) is lower in “hERG current change (%, negative = inhibition) at 10uM” value: 5.42% for the first, -0.135% for the second.

Going from `C=CCn1c2ccccc2c2n[nH]c(=S)nc21` to `O=C(CCc1c[nH]c2ccccc12)NCc1ccc2c(c1)OCO2`, the “hERG current change (%, negative = inhibition) at 10uM” value falls from 7.82% to -12.5%.

Compared with `CCOC(=O)c1[nH]c(CSc2nnnn2-c2ccccc2C)c(C(=O)OCC)c1C`, `CCCCc1cc(C)c(S(=O)(=O)c2ccccc2C)c(=O)[nH]1` is lower in “hERG current change (%, negative = inhibition) at 10uM” value: 6.53% for the first, 3.69% for the second.

Going from `CC1=NN(c2ccc(N)cc2)C(=O)C1.Cl` to `Cc1ccc(N=Cc2c(O)n(C)c(=O)n(C)c2=O)cc1`, the “hERG current change (%, negative = inhibition) at 10uM” value rises from -6.68% to 5.28%.

First: Cc1noc(/C=C/Nc2ccc(F)cc2F)c1[N+](=O)[O-]
Second: Cc1cc(C)c(C)c(S(=O)(=O)Nc2ccc(O)cc2)c1C
The “hERG current change (%, negative = inhibition) at 10uM” value of the first is higher: 12.1% for the first, -22.6% for the second.

Compared with `CN1CCN(NC(=S)NC2CCCC2)CC1`, `COc1ccc2nc(N3CCCC(C(=O)NCCCN4CCN(C)CC4)C3)sc2c1` (centres unmarked) is lower in “hERG current change (%, negative = inhibition) at 10uM” value: 15.7% for the first, 1.67% for the second.

First: NC(=O)c1ccc(NC(=O)c2cccc3c2OCCCO3)cc1
Second: COc1ccc(S(=O)(=O)N2CCCC(C(=O)NCc3cccnc3)C2)cc1OC (centres unmarked)
The “hERG current change (%, negative = inhibition) at 10uM” value of the first is higher: 4.36% for the first, -14.9% for the second.

Going from `COc1ccc(S(=O)(=O)Nc2nc(C(F)(F)F)cs2)cc1` to `COc1ccc(N=C2SC(CC(=O)Nc3ccccc3F)C(=O)N2Cc2ccco2)cc1` (centres unmarked), the “hERG current change (%, negative = inhibition) at 10uM” value falls from 8.48% to 6.8%.

Going from `COc1ccc(CN2CCNC(=O)C2CC(=O)N(C)Cc2nc(C)cs2)c(OC)c1` (centres unmarked) to `Cc1ccc(CN2CCNC(=O)C2CC(=O)N(Cc2c(C)nn(C)c2C)C2CC2)o1` (centres unmarked), the “hERG current change (%, negative = inhibition) at 10uM” value rises from 14.7% to 23.9%.

Compared with `CC1CCCN(C(=O)CN(C)S(=O)(=O)c2ccc3c(c2)c(=O)n(C)c(=O)n3C)C1` (centres unmarked), `Cc1ccc(C)c(N2CCN(C(=O)c3cc(S(=O)(=O)N4CCOCC4)cn3C)CC2)c1` is lower in “hERG current change (%, negative = inhibition) at 10uM” value: -2.37% for the first, -19% for the second.

Compared with `Cc1c(NC(=O)CSc2nnc(-c3cccc(Cl)c3)o2)c(=O)n(-c2ccccc2)n1C`, `CC(C)c1cccc(C(C)C)c1OCCCCCN1CCOCC1` is lower in “hERG current change (%, negative = inhibition) at 10uM” value: 8.33% for the first, -17.2% for the second.

First: COc1ccc(F)cc1S(=O)(=O)N1CC(C)CC(C)C1 (centres unmarked)
Second: CCC(OC(=O)c1nsc(Cl)c1Cl)C(=O)NC(C)(C)CC (centres unmarked)
The “hERG current change (%, negative = inhibition) at 10uM” value of the first is lower: -15.5% for the first, 8.88% for the second.
